This is an account of results in patent US20190367516A1 (Bayer Pharma Aktiengesellschaft, priority 2015, published 2019).

Molecules are shown by their SMILES.

The target of the assay is T1, human M2 receptor (Homo sapiens, UniProt P08172).
T1 sequence (P08172 1-466): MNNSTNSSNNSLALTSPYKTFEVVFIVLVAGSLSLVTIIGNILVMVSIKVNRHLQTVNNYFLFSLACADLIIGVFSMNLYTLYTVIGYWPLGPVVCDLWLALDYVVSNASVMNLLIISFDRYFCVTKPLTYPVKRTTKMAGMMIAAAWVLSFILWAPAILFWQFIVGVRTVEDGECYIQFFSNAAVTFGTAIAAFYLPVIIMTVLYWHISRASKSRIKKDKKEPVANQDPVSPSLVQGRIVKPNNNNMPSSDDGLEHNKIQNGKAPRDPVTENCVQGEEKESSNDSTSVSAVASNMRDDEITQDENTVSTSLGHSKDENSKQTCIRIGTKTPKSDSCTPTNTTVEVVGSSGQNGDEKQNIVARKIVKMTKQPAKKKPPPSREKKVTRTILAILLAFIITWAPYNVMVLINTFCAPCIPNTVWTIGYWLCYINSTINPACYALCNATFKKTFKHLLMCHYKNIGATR
As to conditions: read-out: Efficiency, M2-GIRK1/4 activation test; boosting of the acetylcholine effect at an EC20 acetylcholine concentration.

Turning to `CC(C)C[C@@H](NC(=O)c1cn(-c2ccc(F)cc2F)c2nc(N(C)C)ccc2c1=O)C(F)(F)F` [Example 133, 1-(2,4-Difluorophenyl)-7-(dimethylamino)-4-oxo-N-[(2R)-1,1,1-trifluoro-4-methylpentan-2-yl]-1,4-dihydro-1,8-naphthyridine-3-carboxamide], the Emax was 94%. Then `CC(C)[C@H](NC(=O)c1cn(-c2ccc(F)cc2F)c2nc(N(C)C)ccc2c1=O)C(F)(F)F` [Example 134, 1-(2,4-Difluorophenyl)-7-(dimethylamino)-4-oxo-N-[(2S)-1,1,1-trifluoro-3-methylbutan-2-yl]-1,4-dihydro-1,8-naphthyridine-3-carboxamide], with 92.5%; and `O=C(NC12CC3CC(CC(C3)C1)C2)c1cn(-c2ccc(F)cc2F)c2nc(N3CCOCC3)ccc2c1=O` [Example 136, 1-(2,4-Difluorophenyl)-7-(morpholin-4-yl)-4-oxo-N-(tricyclo[3.3.1.1^3,7]dec-1-yl)-1,4-dihydro-1,8-naphthyridine-3-carboxamide], with 81.5%; and `CC(C)C[C@H](NC(=O)c1cn(-c2ccc(F)cc2F)c2nc(N(C)C)ccc2c1=O)C(F)(F)F` [Example 137, 1-(2,4-Difluorophenyl)-7-(dimethylamino)-4-oxo-N-[(2S)-1,1,1-trifluoro-4-methylpentan-2-yl]-1,4-dihydro-1,8-naphthyridine-3-carboxamide], with 97%. In the case of `CN(C)c1ccc2c(=O)c(C(=O)NC(C(F)(F)F)C(F)(F)F)cn(-c3ccc(F)cc3F)c2n1` [Example 149, 1-(2,4-Difluorophenyl)-7-(dimethylamino)-N-(1,1,1,3,3,3-hexafluoropropan-2-yl)-4-oxo-1,4-dihydro-1,8-naphthyridine-3-carboxamide], the Emax was found to be 100%. Regarding `CN(C)c1ccc2c(=O)c(C(=O)NC3(C(F)(F)F)CCCC3)cn(-c3ccc(F)cc3F)c2n1` [Example 151, 1-(2,4-Difluorophenyl)-7-(dimethylamino)-4-oxo-N-[1-(trifluoromethyl)cyclopentyl]-1,4-dihydro-1,8-naphthyridine-3-carboxamide], the Emax was determined as 86.4%. For the molecule `CN(C)c1ccc2c(=O)c(C(=O)NC34CCC(CC3)CC4)cn(-c3ccc(F)cc3Cl)c2n1` [Example 152, N-(Bicyclo[2.2.2]oct-1-yl)-1-(2-chloro-4-fluorophenyl)-7-(dimethylamino)-4-oxo-1,4-dihydro-1,8-naphthyridine-3-carboxamide], the Emax was 97%. Then `CN(C)c1ccc2c(=O)c(C(=O)NC34CC5CC(C3)CC(C(F)(F)F)(C5)C4)cn(-c3ccc(F)cc3Cl)c2n1` [Example 153, 1-(2-Chloro-4-fluorophenyl)-7-(dimethylamino)-4-oxo-N-[3-(trifluoromethyl)tricyclo[3.3.1.1^3,7]dec-1-yl]-1,4-dihydro-1,8-naphthyridine-3-carboxamide], with 100%; and `CN(C)c1ccc2c(=O)c(C(=O)NC3CC34CCCCC4)cn(-c3ccc(F)cc3Cl)c2n1` (stereo not shown) [Example 154, 1-(2-Chloro-4-fluorophenyl)-7-(dimethylamino)-4-oxo-N-(spiro[2.5]oct-1-yl)-1,4-dihydro-1,8-naphthyridine-3-carboxamide], with 97.6%. Turning to `CN(C)c1ccc2c(=O)c(C(=O)NC(C)(C)C)cn(-c3ccc(F)cc3Cl)c2n1` [Example 155, N-tert-Butyl-1-(2-chloro-4-fluorophenyl)-7-(dimethylamino)-4-oxo-1,4-dihydro-1,8-naphthyridine-3-carboxamide], the Emax worked out at 97.7%. With `CN(C)c1ccc2c(=O)c(C(=O)NC3(C)CCCCC3)cn(-c3ccc(F)cc3Cl)c2n1` [Example 156, 1-(2-Chloro-4-fluorophenyl)-7-(dimethylamino)-N-(1-methylcyclohexyl)-4-oxo-1,4-dihydro-1,8-naphthyridine-3-carboxamide], the Emax came out at 84.7%. For the molecule `CCC12CC3CC(C1)CC(NC(=O)c1cn(-c4ccc(F)cc4Cl)c4nc(N(C)C)ccc4c1=O)(C3)C2` [Example 157, 1-(2-Chloro-4-fluorophenyl)-7-(dimethylamino)-N-(3-ethyltricyclo[3.3.1.1^3,7]dec-1-yl)-4-oxo-1,4-dihydro-1,8-naphthyridine-3-carboxamide], the Emax amounted to 100%.

As for `CC(C)Nc1ccc2c(=O)c(C(=O)NC34CC5CC(CC(C5)C3)C4)cn(-c3ccc(F)cc3F)c2n1` [Example 158, 1-(2,4-Difluorophenyl)-4-oxo-7-(propan-2-ylamino)-N-(tricyclo[3.3.1.1^3,7]dec-1-yl)-1,4-dihydro-1,8-naphthyridine-3-carboxamide], the Emax stood at 100%.

For `CNc1ccc2c(=O)c(C(=O)NC34CC5CC(C3)CC(C(F)(F)F)(C5)C4)cn(-c3ccc(F)cc3F)c2n1` [Example 160, 1-(2,4-Difluorophenyl)-7-(methylamino)-4-oxo-N-[3-(trifluoromethyl)tricyclo[3.3.1.1^3,7]dec-1-yl]-1,4-dihydro-1,8-naphthyridine-3-carboxamide], the Emax turned out to be 92.5%. Take `CNc1ccc2c(=O)c(C(=O)NC34CC5CC(C3)C(F)(F)C(C5)C4)cn(-c3ccc(F)cc3F)c2n1` [Example 161]: the Emax worked out at 99.5%.

Turning to `CNc1ccc2c(=O)c(C(=O)NC34CCC(CC3)CC4)cn(-c3ccc(F)cc3F)c2n1` [Example 162], the Emax came to 93.2%. Then `O=C(Nc1c(Cl)cccc1Cl)c1cn(-c2ccc(F)cc2F)c2nc(NCC(F)(F)F)ccc2c1=O` [Example 163, N-(2,6-Dichlorophenyl)-1-(2,4-difluorophenyl)-4-oxo-7-[(2,2,2-trifluoroethyl)amino]-1,4-dihydro-1,8-naphthyridine-3-carboxamide], with 92.8%; and `COC(=O)N1CCN(c2ccc3c(=O)c(C(=O)Nc4c(Cl)cccc4Cl)cn(-c4ccc(F)cc4F)c3n2)CC1` [Example 164, Methyl 4-{6-[(2,6-dichlorophenyl)carbamoyl]-8-(2,4-difluorophenyl)-5-oxo-5,8-dihydro-1,8-naphthyridin-2-yl}piperazine-1-carboxylate], with 97.3%. For the molecule `O=C(NC12CC3CC(CC(C3)C1)C2)c1cn(-c2ccc(F)cc2F)c2nc(N3CCCCC3=O)ccc2c1=O` [Example 165, 1-(2,4-Difluorophenyl)-4-oxo-7-(2-oxopiperidin-1-yl)-N-(tricyclo[3.3.1.1^3,7]dec-1-yl)-1,4-dihydro-1,8-naphthyridine-3-carboxamide], the Emax was found to be 40.5%.

Consider `O=C(NC12CC3CC(CC(C3)C1)C2)c1cn(-c2ccc(F)cc2F)c2nc(N3CCCS3(=O)=O)ccc2c1=O` [Example 167], for which the Emax is 95%. Take `O=C(NC12CC3CC(CC(C3)C1)C2)c1cn(-c2ccc(F)cc2F)c2nc(N3CCC3=O)ccc2c1=O` [Example 168]: the Emax is 95%. Then `CN(c1ccc2c(=O)c(C(=O)NC34CC5CC(CC(C5)C3)C4)cn(-c3ccc(F)cc3F)c2n1)S(C)(=O)=O` [Example 169], with 79.5%; and `O=C(NC12CC3CC(CC(C3)C1)C2)c1cn(-c2ccc(F)cc2F)c2nc(N3C[C@@H](O)CC3=O)ccc2c1=O` [Example 170], with 96.5%; and `O=C(NC12CC3CC(CC(C3)C1)C2)c1cn(-c2ccc(F)cc2F)c2nc(N3CC(F)(F)CCC3=O)ccc2c1=O` [Example 171], with 90.5%. Regarding `O=C(NC12CC3CC(CC(C3)C1)C2)c1cn(-c2ccc(F)cc2F)c2nc(N3CCOCC3=O)ccc2c1=O` [Example 172], the Emax came out at 87.3%.

With `O=C(NC12CC3CC(CC(C3)C1)C2)c1cn(-c2ccc(F)cc2F)c2nc(N3CCC(O)CC3=O)ccc2c1=O` (stereo not shown) [Example 173], the Emax stood at 100%. Consider `CCC(NC(=O)c1cn(-c2ccc(F)cc2F)c2nc(N3CCCC3=O)ccc2c1=O)C(F)(F)F` (stereo not shown) [Example 177], for which the Emax is 82.4%. Then `CC[C@@H](NC(=O)c1cn(-c2ccc(F)cc2F)c2nc(N3CCCCC3=O)ccc2c1=O)C(F)(F)F` [Example 178], with 81.3%. Consider `CC(NC(=O)c1cn(-c2ccc(F)cc2F)c2nc(N3CCCC3=O)ccc2c1=O)C(F)(F)F` (stereo not shown) [Example 179], for which the Emax was found to be 63.3%. On to `CCC(NC(=O)c1cn(-c2ccc(F)cc2F)c2nc(N3CCCS3(=O)=O)ccc2c1=O)C(F)(F)F` (stereo not shown) [Example 180], for which the Emax is 96.6%. For `CC12CCC(NC(=O)c3cn(-c4ccc(F)cc4F)c4nc(N5CC(O)CC5=O)ccc4c3=O)(CC1)CC2` (stereo not shown) [Example 181], the Emax was determined as 94.5%. As for `O=C(NCc1c(Cl)cccc1Cl)c1cn(-c2ccc(F)cc2F)c2nc(N3CCCS3(=O)=O)ccc2c1=O` [Example 182, N-(2,6-Dichlorobenzyl)-1-(2,4-difluorophenyl)-7-(1,1-dioxido-1,2-thiazolidin-2-yl)-4-oxo-1,4-dihydro-1,8-naphthyridine-3-carboxamide], the Emax was found to be 94.8%.

For `CC(C)(NC(=O)c1cn(-c2ccc(F)cc2F)c2nc(N3CCNC3=O)ccc2c1=O)c1c(F)cccc1F` [Example 184, 1-(2,4-Difluorophenyl)-N-[2-(2,6-difluorophenyl)propan-2-yl]-4-oxo-7-(2-oxoimidazolidin-1-yl)-1,4-dihydro-1,8-naphthyridine-3-carboxamide], the Emax is 99%.

As for `O=C(NC12CC3CC(CC(C3)C1)C2)c1cn(-c2ccc(F)cc2F)c2nc(N3CCNC3=O)ccc2c1=O` [Example 186, 1-(2,4-Difluorophenyl)-4-oxo-7-(2-oxoimidazolidin-1-yl)-N-(tricyclo[3.3.1.1^3,7]dec-1-yl)-1,4-dihydro-1,8-naphthyridine-3-carboxamide], the Emax was 94%.
